Data from PubChem BioAssay AID686978 (National Center for Advancing Translational Sciences (NCATS), 2013).
“And” between values parts separate entries of the source, which are not always exact repeats. Equal entries are not always repeated. Among all 420,000 compounds or so, about 64,000 (15%) were called active. The inconclusive results got no clear call from the source; some entries with a clear call stand among them for comparison. Calls come from the whole dose curve; as a rule, active = well fitted inhibition curve with a large enough effect; inconclusive = small, poorly fitted or top-dose-only effect; inactive = flat fitted curve, though single readings scatter. No potency is given beside an inconclusive call; the fits are too rough.

experiment: qHTS for Inhibitors of human tyrosyl-DNA phosphodiesterase 1 (TDP1): qHTS in cells in absence of CPT; settings: DT40 Tdp1-/- hTDP1 cells, no CPT, ATP luminescence, 48 h; series mostly up to 46.2 µM; note: nearly all actives have a fitted effect of over 55% in size
Procedure, shortened: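 Growth kinetics read by CellTiter-Glo luminescence after ≥48 hr at 37 °C. Cells: DT40 Tdp1-/- stably carrying human TDP1, 400 per well, compound exposure in the absence of CPT (DMSO vehicle).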
Potency is the fitted concentration of half-maximal effect; tags give direction and shape of the fitted curve.

Row | SMILES | Potency
1 | CCCCC(CC)CN=C(N)NC(N)=NCCCCCCN=C(N)NC(N)=NCC(CC)CCCC (stereo not given) | active: 11.9 µM and active: 9.2 µM
2 | FC(F)(F)c1ccc(-c2noc(CN3CCCN(C4CCCCC4)CC3)n2)cc1 | active: 20.6 µM
3 | Cc1cc(C(=O)O)cc(S(=O)(=O)NNC(=O)c2cccs2)c1C | inactive
4 | CC(C)C[C@H](NC(=O)c1nc[nH]c1C(=O)NC1CCNCC1)C(=O)OC(C)(C)C | inconclusive [inhibitor, single point]
5 | CC(=O)N1CC2(CC(c3ccccc3C(F)(F)F)=NO2)CN1c1ccc(Cl)cc1 (stereo not given) | inconclusive [inhibitor, single point]
6 | Cc1ccccc1C(=O)NNC(=O)C(=O)Nc1cccc(Cl)c1C | inactive
7 | O=C(/C=C/c1cccs1)Nc1ccc([N+](=O)[O-])cc1 | inconclusive [inhibitor, single point]
8 | CC(=O)N1CCN(S(=O)(=O)c2ccc(C)cc2)C1C (stereo not given) | inactive
9 | O=C(Nc1cc(S(=O)(=O)N2CCOCC2)ccc1-n1cncn1)c1ccc(Cl)cc1 | active: 29.1 µM
10 | CCOc1ccc2nc(NC(=O)CN3CCN(CC)CC3)sc2c1 | inconclusive [inhibitor, single point]
11 | COC(=O)[C@@H](NC(=O)NCc1cccc(OC)c1)C(C)C | inactive
12 | CCOC(=O)CSc1nc2ccc(NC(=O)COc3ccccc3C)cc2s1 | inactive
13 | COc1cc(CNCCc2c[nH]c3ccccc23)cc(Cl)c1OCC(N)=O | inconclusive [inhibitor, partial curve, poor fit]
14 | Cc1cc2nnc(SC(C)C#N)n2c2ccccc12 (stereo not given) | inconclusive [inhibitor, single point]
15 | COC(=O)CN1C(=O)C(O)(CC(=O)c2ccc(F)cc2)c2ccccc21 (stereo not given) | inconclusive [inhibitor, single point]
16 | CC(=O)Nc1ccc(N2CCCC(C)C2)c([N+](=O)[O-])c1 (stereo not given) | active: 23.1 µM
17 | COc1ccc(N(CC(=O)NCc2ccc(Cl)cc2)S(=O)(=O)c2c(C)noc2C)cc1 | inconclusive [inhibitor, single point]
18 | CC1(C)CN(c2ccccc2)N(Cc2ccc(F)cc2)C1=O | active: 9.2 µM
19 | O=C(NNC1=Nc2cccc3cccc1c23)c1ccc(Br)cc1 | active: 13 µM
20 | O=C(c1cnccn1)N1CCC[C@@]2(CCN(c3ccncc3)C2)C1 | inactive
21 | CCOc1cnn(-c2ccccc2)c(=O)c1Cl | active: 16.4 µM
22 | COc1cc(NC(=S)NCCO)c(OC)cc1Cl | inactive
23 | NCc1csc(NC(=O)Nc2cccc(C(F)(F)F)c2)n1 | active: 23.1 µM
24 | Cn1nc(C(=O)Nc2nc(-c3ccccn3)cs2)c2ccccc2c1=O | active: 1.3 µM
25 | CN(C)CCn1c(=O)n(Cc2ccccc2)c(=O)c2c3c(sc21)CCCCC3 | inconclusive [inhibitor, single point]

Row | SMILES | Potency
26 | CCCCCC(=O)N1C[C@@H](O)[C@H](n2cc(C3CC3)nn2)C[C@@H]1c1ccc(Cl)cc1 | inactive
27 | Clc1ccc(Cn2c(-c3cccnc3Cl)nc3ccccc32)cc1 | inconclusive [inhibitor, single point]
28 | O=C(c1cn(-c2ccccc2)nc1-c1ccccc1)n1nnc2ccccc21 | inconclusive [inhibitor, single point]
29 | S=C(NCCc1ccc(Cl)cc1)NC1CC1 | inactive
30 | Cc1onc(-c2ccccc2)c1C(=O)Nc1ccncc1 | inconclusive [inhibitor, full curve, poor fit]
31 | Cc1ccc(NC(=O)c2cc(S(=O)(=O)N3CCOCC3)cn2C)cc1F | inactive
32 | CCN(CC)CCNC(=O)COc1ccc(Cl)cc1 | inactive
33 | CC(C)(C)C(=O)N1CCN(c2ccc([N+](=O)[O-])cc2Cl)CC1 | inconclusive [inhibitor, single point]
34 | O=Cc1cn(-c2ccccc2)nc1-c1cc2ccccc2oc1=O | inconclusive [inhibitor, single point]
35 | O=C(/C=C/c1ccc(Cl)cc1)NCc1ccncc1 | inconclusive [inhibitor, single point]
36 | CCOCCCN(C)C1CCN(C(=O)c2oc3ccccc3c2NC(=O)COc2cccc(C)c2)CC1 | inactive
37 | S=C(NCC1CCCO1)Nc1ccccc1 (stereo not given) | inactive
38 | COc1ccc(C(=O)N2CCN(c3nc4ccccc4o3)CC2)cc1OC | active: 20.6 µM
39 | CC(C)(C)c1ccc(C(=O)OC/C(O)=C(\C#N)c2nc3ccccc3s2)cc1 | inconclusive [inhibitor, partial curve]
40 | Nc1cccc(C(=O)c2ccccc2C(=O)O)c1 | inactive
41 | Cc1ccc(OCCC(=O)OCC(=O)Nc2cc(S(=O)(=O)N(C)C)ccc2C)cc1 | inconclusive [inhibitor, single point]
42 | CCOc1ccc(CCNC(=O)c2cc(S(=O)(=O)N3CCOCC3)ccc2C)cc1OCC | inconclusive [inhibitor, single point]
43 | CCN(CC)S(=O)(=O)c1cccc(-c2nc3n(n2)Cc2ccccc2-3)c1 | active: 23.1 µM
44 | C=CCOc1ccc(C2N3CC4(CC)CN2CC(CC)(C3)C4=O)cc1 (stereo not given) | inconclusive [inhibitor, partial curve]
45 | COc1ccc(CCNC(=O)C2CCC(C(C)(C)C)CC2)cc1OC (stereo not given) | inconclusive [inhibitor, single point]
46 | CC(C)C[C@H]1CN=C(Nc2ccccc2)N1CC1CCCC1 | active: 16.4 µM
47 | C=C(CO)C1Cc2c(ccc3c(=O)c4c(oc23)COc2cc(OC)c(OC)cc2-4)O1 (stereo not given) | inconclusive [inhibitor, partial curve, poor fit]
48 | Cc1ccc(C(=O)Nc2cccc(C(F)(F)F)c2)cc1Nc1ncnc2nc[nH]c12 | active: 20.6 µM
49 | CC(/C=N/NC(=O)c1ccccc1C)=C\c1ccccc1 | inconclusive [inhibitor, partial curve, poor fit]
50 | Cc1c(C(=O)Nc2ccc(Cl)cc2)c2ccccn2c1C(=O)c1ccc(F)cc1 | inactive

Row | SMILES | Potency
51 | CCCc1cc(=O)oc2cc(C)cc(OCC(=O)NCCCn3ccnc3)c12 | inconclusive [inhibitor, single point]
52 | Cc1cccc2cc(C#N)c(N3CCC(O)CC3)nc12 | inconclusive [inhibitor, single point]
53 | Cc1ccc(NC(=O)COC(=O)C2(c3ccc(Cl)cc3)CCCC2)cc1 | active: 23.1 µM
54 | Cc1cccc(NC(=S)NNc2cccc(Cl)c2)c1 | active: 18.4 µM
55 | O=C(NNC(=S)Nc1ccccc1C(F)(F)F)c1ccc(Br)o1 | inconclusive [inhibitor, partial curve, poor fit]
56 | CC(C)Cn1cc(NC(=O)NCc2ccccc2Cl)c2ccccc2c1=O | active: 18.4 µM
57 | Cc1ccccc1N(CC(=O)NCCSC1CCCCC1)S(=O)(=O)c1ccccc1 | inconclusive [inhibitor, single point]
58 | Cc1ccc(C(=O)OCC(=O)N2CCC(C)CC2)cc1S(=O)(=O)N1CCCCC1 | inconclusive [inhibitor, single point]
59 | O=C(CSc1ccc2nnc(CCNS(=O)(=O)c3ccccc3)n2n1)Nc1nc2ccccc2s1 | inconclusive [inhibitor, single point]
60 | Cc1ccc(S(=O)(=O)NCC23C=CC(O2)C2C(=O)N(c4ccccc4)C(=O)C23)cc1 (stereo not given) | inconclusive [inhibitor, single point]
61 | CN(CC(=O)Nc1ccc(Cl)c(Cl)c1)C(=O)C1CCC1 | inconclusive [inhibitor, single point]
62 | CC(C)(C)c1ccc(NC(=O)Nc2ccc(F)cc2)cc1 | active: 6.51 µM
63 | CC(C(=O)N(C)C1CCS(=O)(=O)C1)N1C(=O)/C(=C/c2ccco2)SC1=S (stereo not given) | inconclusive [inhibitor, single point]
64 | CCCn1c(N)c(N2CCCCC2)c(=O)n(CC(=O)Nc2ccc(OC(F)(F)F)cc2)c1=O | inconclusive [inhibitor, single point]
65 | CC(C)Oc1cccc(C2NC(=O)c3ccccc3O2)c1 (stereo not given) | inactive
66 | CCCCNCC#CCOc1cc(C)ccc1C(C)C | inconclusive [inhibitor, single point]
67 | COc1ccc(-c2nc3cnc(N4CCN(C)CC4)nc3n(C)c2=O)cc1 | inconclusive [inhibitor, single point]
68 | COc1ccc(-c2cc(C(=O)Nc3sc4c(c3C#N)CCCC4)no2)cc1OC | inactive
69 | CNC(=O)CN(Cc1ccccc1)S(=O)(=O)c1ccccc1 | inactive
70 | O=c1n(Cc2ccccc2Cl)nc2n1-c1ccccc1SC2 | inconclusive [inhibitor, single point]
71 | COc1cccc(NC(=O)c2ccc3nc(Cc4ccccc4)oc3c2)c1 | active: 16.4 µM
72 | Cc1ccc(NC(=O)CN2CCc3cc4c(cc3C2)OCCCO4)cc1C | inconclusive [inhibitor, single point]
73 | CCc1nnc(NS(=O)(=O)c2ccc(N3C(=O)c4ccccc4C3=O)cc2)s1 | inactive
74 | S=c1[nH]c2ccccc2c2ccccc12 | inconclusive [inhibitor, single point]
75 | CC1(C(=O)Nc2ccc3c(c2)OCCO3)CCN1C(=O)Cc1cc(F)ccc1F (stereo not given) | inconclusive [inhibitor, single point]
